Measured values reported in article PMC4336329 (PLoS ONE, 2015).
The campaign covered roughly 310,000 compounds. About 14,000 (4.5%) showed an effect of 50% or more. Effects have a minus sign here. Some of the results follow.

target: human ether-à-go-go-related gene (hERG) potassium channel (human, UniProt Q12809); experiment: primary screen, population patch clamp on CHO cells stably expressing hERG
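Further: peak tail current of the secondary pulse compared with the same well before compound.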

human ether-à-go-go-related gene (hERG) potassium channel, sequence (Q12809 whole entry, looked up): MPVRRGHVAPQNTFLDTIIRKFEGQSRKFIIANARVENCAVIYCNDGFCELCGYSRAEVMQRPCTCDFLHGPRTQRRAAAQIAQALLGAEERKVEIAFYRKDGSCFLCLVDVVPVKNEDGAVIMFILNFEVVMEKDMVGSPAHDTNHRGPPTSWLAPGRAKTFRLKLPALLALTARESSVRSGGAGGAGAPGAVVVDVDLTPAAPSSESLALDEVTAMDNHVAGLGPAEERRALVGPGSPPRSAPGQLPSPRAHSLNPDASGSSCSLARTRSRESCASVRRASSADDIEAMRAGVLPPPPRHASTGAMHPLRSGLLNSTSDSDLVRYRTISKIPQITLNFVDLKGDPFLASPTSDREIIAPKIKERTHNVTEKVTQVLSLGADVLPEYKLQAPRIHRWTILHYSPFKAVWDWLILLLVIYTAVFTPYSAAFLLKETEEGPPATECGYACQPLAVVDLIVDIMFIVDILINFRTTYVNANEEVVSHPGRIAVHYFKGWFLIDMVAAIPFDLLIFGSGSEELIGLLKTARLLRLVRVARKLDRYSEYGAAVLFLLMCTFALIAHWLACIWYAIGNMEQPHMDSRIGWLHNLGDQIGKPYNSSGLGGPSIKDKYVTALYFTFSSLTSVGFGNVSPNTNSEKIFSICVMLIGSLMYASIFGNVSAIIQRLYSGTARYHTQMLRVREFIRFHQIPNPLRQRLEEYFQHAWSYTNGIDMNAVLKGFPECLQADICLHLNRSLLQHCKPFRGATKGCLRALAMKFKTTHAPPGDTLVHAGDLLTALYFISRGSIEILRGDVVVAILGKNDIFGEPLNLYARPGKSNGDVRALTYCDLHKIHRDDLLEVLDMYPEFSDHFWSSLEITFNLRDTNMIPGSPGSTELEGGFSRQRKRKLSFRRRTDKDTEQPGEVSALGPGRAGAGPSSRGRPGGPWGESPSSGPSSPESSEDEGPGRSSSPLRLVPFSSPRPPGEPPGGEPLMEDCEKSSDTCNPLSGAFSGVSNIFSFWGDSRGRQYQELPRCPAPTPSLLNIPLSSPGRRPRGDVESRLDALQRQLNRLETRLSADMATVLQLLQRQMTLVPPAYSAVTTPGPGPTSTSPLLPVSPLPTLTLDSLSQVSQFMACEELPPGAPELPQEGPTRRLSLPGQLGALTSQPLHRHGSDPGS

Row | SMILES | hERG current change (%, negative = inhibition) at 10uM
1 | Cc1ccc(NC(=S)N/N=C2\CCCCC2C)cc1 (stereo not drawn) | -10.4%
2 | CCNC(=S)N1CCN(CCN2C(=O)c3cccc4cccc(c34)C2=O)CC1 | 0.247%
3 | CC(C)(C)OC(=O)N1CCC[C@H]1C(=O)NCc1ccc(Cl)cc1Cl | 9.03%
4 | CCOc1ccc(CN2CCNC(=O)C2CC(=O)NCCCn2ccnc2)cc1 (stereo not drawn) | 19%
5 | CN(C)c1nc(N)nc(CSc2nc3cc(Cl)ccc3o2)n1 | 8.44%
6 | O=C(c1ccc(Cl)c(S(=O)(=O)N2CCCCC2)c1)N1CCCCC1 | -31.7%
7 | Cc1nc2ccccc2c(=O)n1NC(=O)c1ccc(Cl)cc1 | -17.3%
8 | CN(Cc1ccccc1)C(=O)CN1CCN(C(c2ccccc2)c2ccccc2)CC1 | -47.7%
9 | CC(/C=N/n1c(-c2cc(C)[nH]n2)n[nH]c1=S)=C\c1ccco1 | 15.8%
10 | COCCNC(=O)C(C)N(c1ccc(Oc2ccccc2)cc1)S(C)(=O)=O (stereo not drawn) | -8.8%
11 | CC(=O)Nc1cc(C(=O)N2CCCC2)ccc1S(=O)(=O)c1ccc(C)cc1 | 2.93%
12 | COc1cccc(/C=N/NC(=O)CN(C2=NS(=O)(=O)c3ccccc32)c2ccccc2)c1 | 0.919%
13 | COCN(C#N)c1nc(N(C)C)nc(N(C)C)n1 | 4.28%
14 | CC12C(=O)N(CCC(=O)O)C(=O)C1C1C=CC2C1 (stereo not drawn) | 10.3%
15 | CCN(C(=O)COC(=O)c1cnc(C)cn1)C1CCS(=O)(=O)C1 (stereo not drawn) | -15.2%
16 | O/N=C(/CCc1ccccc1)C1(O)CCCCC1 | -0.675%
17 | CCC1CN(C(=O)N2CCC(C(=O)NCCc3ccccc3)CC2)c2ccccc2O1 (stereo not drawn) | -19.5%
18 | Cc1nn(-c2ccccc2)c2c1c(C)c(CCC(=O)N1CCOCC1)c(=O)n2C | -40.3%
19 | COc1cc(C(=O)NCC2CCCO2)cc(Br)c1OCc1ccccc1 (stereo not drawn) | -32.3%
20 | COc1ccccc1OCCn1c(=O)oc2ccc(C)cc21 | -0.344%
21 | Cc1ccc(CN2C(=O)CCC2(C)C(=O)NCc2cccnc2)cc1 (stereo not drawn) | -3.97%
22 | C[N+]12CCC(CC1)C(OC(=O)C(O)(c1ccccc1)c1ccccc1)C2.[Br-] (stereo not drawn) | 0.174%
23 | CCOCCCNC(=O)CN1C(=O)/C(=C/c2ccccc2C)Sc2ccccc21 | -8.45%

Row | SMILES | hERG current change (%, negative = inhibition) at 10uM
24 | O=S(=O)(NCc1ccccc1Cl)c1ccc(-n2cnnn2)cc1 | 21.2%
25 | CCSc1ncc(Cl)c(C(=O)Nc2sc3c(c2C(=O)NCc2cccnc2)CCCC3)n1 | 10.6%
26 | CN(CC(=O)Nc1ccc(F)cc1)CC(=O)NC1CCCCC1 | 11%
27 | COc1ccc(C2C(C(=O)N3CCOCC3)=C(C)NC3=C2C(=O)CC(C)(C)C3)cc1O (stereo not drawn) | 5.59%
28 | CCCc1cc(=O)[nH]c(SCC(=O)Nc2ccc(Br)cc2)n1 | 1.12%
29 | CCNc1nc(Oc2ccc(C(=O)OC)cc2)nc(SC)n1 | 5.75%
30 | O=C(CSc1nnc2ccc(-c3cccnc3)nn12)Nc1ccccc1F | -39.2%
31 | CCOCCn1ccc2c(OCC(=O)Nc3ccccc3OC)cccc2c1=O | -18%
32 | CC1CCN(c2c(NCc3ccc(C(=O)N(C)C4CCCCC4)cc3)c(=O)c2=O)CC1 | 4.79%
33 | COC(C[C@@H]1O[C@@H]1C(=O)[C@@H](C)OCc1ccccc1)OC | 22.5%
34 | OCC[C@@H]1C[C@@H](O)[C@H](O)[C@]2(OCCc3ccccc32)O1 | 12%
35 | CCOc1ccc(-c2cc(CCCC(=O)NCCC(C)C)no2)cc1 | 1.35%
36 | O=C(C1CCC(=O)N(C2CCCC2)C1)N1CCN(c2ccccc2Cl)CC1 (stereo not drawn) | -15.8%
37 | NC(N)=NC(=S)Nc1ccc(Cl)cc1 | 11.3%
38 | CCn1c(C)c(C)c2cc(C(=O)Nc3cccc(Cl)c3)ccc21 | 11.3%
39 | Cc1cc2nc(N3C(=O)CNC3=S)sc2cc1C | 17.2%
40 | O=C(CSc1nnc(CNC(=O)c2ccc(F)cc2)o1)Nc1ccc2c(c1)OCO2 | 12.3%
41 | CCOCCCNC(=O)c1cc2c(=O)n3ccccc3nc2s1 | -7.05%
42 | COc1cccc(CNC(=O)c2ccc(CS(=O)c3ccccc3)o2)c1 (stereo not drawn) | 3.35%
43 | COc1cc(CNCCc2ccccc2F)ccc1OCc1ccc(Cl)nc1.Cl | -49.5%
44 | COc1ccc(CN2CCNC(=O)C2CC(=O)N(Cc2nccn2C)C(C)C)c(OC)c1 (stereo not drawn) | -3.92%
45 | CCn1c(COc2ccccc2)nnc1SCC(=O)Nc1ccc(N2CCOCC2)cc1 | 10.9%
46 | Cc1ccc(-n2ncc3c(NCCCn4ccnc4)ncnc32)c(C)c1 | -17.9%

Row | SMILES | hERG current change (%, negative = inhibition) at 10uM
47 | O=c1cc(CN2CCN(CCO)CC2)c2cc3c(cc2o1)CCC3 | -17.2%
48 | COc1cccc(C(=O)NCCC2=CCCCC2)c1 | -6.44%
49 | CC1(C)SC(=S)N(NC(=O)Nc2ccccc2)C1N(O)C(=O)Nc1cccc2ccccc12 (stereo not drawn) | 4.36%
50 | CN(C)C(CNC(=O)CCC(=O)c1ccc(Br)cc1)c1ccccc1 (stereo not drawn) | -13.2%
51 | Cc1ccc(S(=O)(=O)NN=C2CCN(Cc3ccccc3)CC2)cc1 | 0.546%
52 | O=C(CSc1ncccc1C(=O)O)NCc1ccc(F)cc1 | -2.84%
53 | O=C(Oc1ccc(Cl)c2cccnc12)c1ccco1 | -11%
54 | CCc1[nH]c(=S)c(C#N)c2c1CCCC2 | 14.9%
55 | COc1ccc(CN(C)C2c3ccccc3-c3ccccc32)cc1 | 17.4%
56 | C=CCOc1ccc(C2NC(=O)c3ccccc3O2)cc1OCC (stereo not drawn) | 18.9%
57 | CCOC(=O)c1sc(NC(=O)CSc2nc3c(c(-c4ccc(OC)cc4)c2C#N)CCCC3)c(C#N)c1C | 43%
58 | CC(=O)N1c2ccccc2N(Cc2ccc([N+](=O)[O-])cc2)C(=O)C1(C)C | -2.41%
59 | CC1CCCN(C(=O)CSc2n[nH]c(-c3cccs3)n2)C1 (stereo not drawn) | 1.03%
60 | CCOC(=O)c1cc(C)n(-n2cnnc2)c1C | -0.599%
61 | CCc1ccc(-c2nc(SCC(=O)c3c(N)n(C4CC4)c(=O)[nH]c3=O)n[nH]2)cc1 | -14%
62 | Cn1c(SCC(=O)c2ccccc2)nnc1-c1cnccn1 | 6.47%
63 | O=C(CCn1nc(-c2ccc(Cl)cc2)c2ccccc2c1=O)NN1CCOCC1 | -29.8%
64 | Cc1cc(C)n2nc(S(=O)(=O)N(C)c3ccccc3)nc2n1 | 8%
65 | Cl.O=C(Cn1c(NCCO)nc2ccccc21)c1ccc(Cl)cc1Cl | -11.2%
66 | Cc1ccc(C(=O)Oc2ccccc2N2C(=O)C3CCC(C)CC3C2=O)cc1 (stereo not drawn) | -9.79%
67 | CC(C)(C)NC(=O)c1ccc(COc2ccc(Cl)cc2Cl)o1 | 3.88%
68 | COc1ccc(C(=O)NN(C)c2nc(-c3ccccc3)cc(C)c2S(C)(=O)=O)cc1 | 9.62%
69 | COc1c2occc2cc2ccc(=O)oc12 | 10.8%

Row | SMILES | hERG current change (%, negative = inhibition) at 10uM
70 | O=C(/C=C/c1ccco1)NC(=S)Nc1ccccc1 | 17.3%
71 | Cc1cc(C)n2nc(C(=O)OCC(=O)Nc3cc(Cl)ccc3C)nc2n1 | -4.78%
72 | Cc1cc(C)c(S(=O)(=O)N2CCc3ccccc32)c(C)c1 | 22.9%
73 | Nc1nc(N)c2sc3nc4c(cc3c2n1)CCC4 | -1.09%
74 | CC12CCC(=O)N1C(C(=O)OCC(=O)Nc1cccc(S(=O)(=O)N3CCCCCC3)c1)CS2 (stereo not drawn) | -86.8%
75 | CCCNc1nc(Cl)nc(NCc2cccnc2)n1 | 4.75%
76 | Nc1nc(N)nc(-c2ccccc2)n1 | 18.7%
77 | Cc1c(-c2nc(-c3ccc(C(F)(F)F)cc3)no2)n(C)oc1=O | 8.16%
78 | CCN1C(=O)[C@H]2[C@@H](c3ccc(C)cc3)N3C(=O)N(c4cccc(Cl)c4)C(=O)[C@@]3(C)[C@H]2C1=O | 10.5%
79 | COc1ccc(CCC(C)NCCc2ccccc2)cc1 (stereo not drawn) | -29.6%
80 | COC(=O)CNC(=O)c1ccc2c(c1)S(=O)(=O)c1ccccc1C2=O | -4.35%
81 | COc1cc(Cl)c(C)cc1NC(=O)c1ccc(S(C)(=O)=O)cc1 | -5.28%
82 | O=C(c1cc(-c2ccco2)nc2ccccc12)N1CCN(Cc2ccccc2)CC1 | -42.8%
83 | Cc1ccc(S(=O)(=O)NC(Cc2ccc(Cl)cc2)C(=O)O)cc1 (stereo not drawn) | 22.1%
84 | CC1CC1C(=O)Nc1cc(C(F)(F)F)ccc1N1CCOCC1 (stereo not drawn) | 6.94%
85 | N#Cc1c(NC(=O)CSc2ncn[nH]2)sc2c1CCCC2 | 3.78%
86 | CCCCN1C(=O)c2ccc(C(=O)NCCN3C(=O)S/C(=C\c4cccnc4)C3=O)cc2C1=O | 3.77%
87 | COC(=O)C1CCN(C(=O)Nc2ccccc2)CC1 | 24.3%
88 | CC(/C=C/c1ccccc1)NC(N)=O (stereo not drawn) | 6.49%
89 | Cc1ccc(S(=O)(=O)NNC(=S)NCCc2ccccc2)cc1 | -7.79%
90 | COc1c(C)cc(Br)cc1C(=O)Nc1cccc(NC(=O)c2ccco2)c1 | -10.1%
